According to publication PMC4336329 (PLoS ONE, 2015):
Hit rate of the full screen: of about 310,000 compounds, about 2,200 (0.71%) showed an effect of 50% or more. Effects have a minus sign here. The list shows a part of the results.

target: human ether-à-go-go-related gene (hERG) potassium channel (human, UniProt Q12809); assay: primary screen, population patch clamp on CHO cells stably expressing hERG
Sequence (Q12809 whole entry, looked up): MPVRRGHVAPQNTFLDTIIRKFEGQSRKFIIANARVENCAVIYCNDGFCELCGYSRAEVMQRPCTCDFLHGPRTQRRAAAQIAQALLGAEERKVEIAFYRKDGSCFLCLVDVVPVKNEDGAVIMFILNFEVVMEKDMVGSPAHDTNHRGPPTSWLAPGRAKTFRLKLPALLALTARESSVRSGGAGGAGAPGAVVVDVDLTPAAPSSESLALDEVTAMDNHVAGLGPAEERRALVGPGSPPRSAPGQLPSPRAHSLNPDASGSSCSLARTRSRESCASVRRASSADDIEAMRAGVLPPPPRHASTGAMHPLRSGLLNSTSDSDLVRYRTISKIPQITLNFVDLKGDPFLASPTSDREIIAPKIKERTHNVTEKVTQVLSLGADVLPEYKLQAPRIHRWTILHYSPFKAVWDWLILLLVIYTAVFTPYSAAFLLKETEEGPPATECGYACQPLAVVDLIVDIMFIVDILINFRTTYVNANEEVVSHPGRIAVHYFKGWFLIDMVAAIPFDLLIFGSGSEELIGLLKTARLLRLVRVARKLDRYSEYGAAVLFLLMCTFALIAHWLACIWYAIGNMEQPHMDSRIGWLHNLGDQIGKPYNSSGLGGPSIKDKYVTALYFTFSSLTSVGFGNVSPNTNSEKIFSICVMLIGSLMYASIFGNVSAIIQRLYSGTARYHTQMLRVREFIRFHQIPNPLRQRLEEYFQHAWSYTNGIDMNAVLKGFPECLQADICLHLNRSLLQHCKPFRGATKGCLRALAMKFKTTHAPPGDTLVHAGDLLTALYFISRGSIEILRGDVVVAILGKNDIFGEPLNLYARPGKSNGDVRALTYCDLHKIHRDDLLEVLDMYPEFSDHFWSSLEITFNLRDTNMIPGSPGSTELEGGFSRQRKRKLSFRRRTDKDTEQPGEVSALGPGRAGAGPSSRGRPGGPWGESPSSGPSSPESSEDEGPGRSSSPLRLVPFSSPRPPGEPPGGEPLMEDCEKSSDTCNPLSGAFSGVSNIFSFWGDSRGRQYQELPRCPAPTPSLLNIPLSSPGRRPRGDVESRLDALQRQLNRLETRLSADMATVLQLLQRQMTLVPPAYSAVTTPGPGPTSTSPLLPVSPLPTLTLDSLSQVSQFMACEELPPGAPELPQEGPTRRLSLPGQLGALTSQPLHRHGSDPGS

Row | SMILES | hERG current change (%, negative = inhibition) at 1uM [%]
1 | O=c1oc2cc(OCc3nn[nH]n3)ccc2c2c1CCCC2 | 10.9
2 | O=C(Nc1ccc(Br)cc1F)C1CCCN(S(=O)(=O)c2cnc[nH]2)C1 (stereo not drawn) | 7.92
3 | C=CCn1c(CC#N)nnc1N1CCOCC1.Cl | 0.494
4 | O=C(COC(=O)c1ccc(S(=O)(=O)Nc2ccccc2)cc1)NCc1ccco1 | 3.31
5 | CCCC(=O)NNC(=O)c1c(O)c2ccccc2[nH]c1=O | 14.4
6 | O=C(CCn1c(=S)oc2ccccc21)Nc1cc([N+](=O)[O-])ccc1F | 17.7
7 | COc1ccc(C2CC23N=C(c2ccccc2)OC3=O)cc1 (stereo not drawn) | 9.65
8 | Cc1ccc(-c2ccc([C@H]3[C@H]4C=CC[C@@H](C)[C@@H]4C(=O)N3Cc3ccccc3)c(F)c2)cc1 | 5.29
9 | O=S(=O)(/C=C/c1ccccc1)NCCc1ccccn1 | 7.57
10 | O=C(CCCSc1nc2ccccc2[nH]1)N1CCN(c2ccc([N+](=O)[O-])cc2)CC1 | -86.9
11 | COc1ccc2nc(SCC(=O)NC(C)(C)C)[nH]c2c1 | 11.8
12 | O=S1(=O)[C@H]2C[C@@H]3C=C[C@]2(CN1Cc1ccc(C(F)(F)F)cc1)O3 | 4.34
13 | c1ccc(CCc2nn3c(Cc4ccccc4)nnc3s2)cc1 | 1.64
14 | Cc1sc(-n2c(C)cc(/C=N/n3cnnc3)c2C)c(C#N)c1C | -0.338
15 | Cn1c(SCC(=O)c2ccc3c(c2)Cc2ccccc2-3)nnc1-c1cccc(N)c1 | 6.59
16 | CC1CCN(C(=O)c2ccc3c(c2NCCO)C(=O)c2ccccc2C3=O)CC1 | 13.8
17 | O=C1CCN(CCc2ccccc2)CCN1[C@H](CSc1ccccc1)c1ccccc1 | -72.2
18 | NC(=O)C1=C[C@@H](c2ccccc2)C[C@@H](OCc2ccc(CO)cc2)O1 | 3.7
19 | CCc1ccc(S(=O)(=O)/N=C2/C=C(Sc3ncn[nH]3)C(=O)c3ccccc32)cc1 | 19.3

Row | SMILES | hERG current change (%, negative = inhibition) at 1uM [%]
20 | CC1(C)Cc2nc3sc4c(NCCO)ncnc4c3cc2CS1 | 12.7
21 | O=C(NCC1CCOCC1)C1CCC(=O)N(Cc2cccc(C(F)(F)F)c2)C1 (stereo not drawn) | 15.2
22 | Cn1c(SCC(=O)N/N=C/c2ccc(O)c(O)c2)nc2ccccc21 | 7.04
23 | COC(=O)c1ccc(NC(=O)C2CC2)o1 | 15.4
24 | COc1ccc(S(=O)(=O)N2CCCC2C(=O)Nc2nc3c(s2)CCCC3)cc1 (stereo not drawn) | 10
25 | Cc1ccc(C(=O)Nc2cccc(C(=O)O)c2)cc1S(=O)(=O)N1CCOCC1 | 11.8
26 | CC(=O)c1cccc(OCC(=O)N2CCN(CC(=O)Nc3cccc(F)c3)CC2)c1 | -6.24
27 | COCCCn1c(=N)c(C(=O)NC2CCCCC2)cc2c(=O)n3ccccc3nc21 | -81.6
28 | COc1ccc(OCCCC(=O)Nc2cccc(SC)c2)cc1 | 10.7
29 | COc1ccc(OCCNC2CCCC2)cc1 | 9.54
30 | COc1ccc(C)cc1NC(=O)CN1CCN(C/C=C/c2ccccc2)CC1 | -45.2
31 | Cc1cc(CC(C)C)n(-c2nc3ccccc3c(=O)n2OCc2ccccc2)n1 | 8.84
32 | CC1CC(=O)N(c2ccc(NCc3ccc(Cl)cc3)c([N+](=O)[O-])c2)C1=O (stereo not drawn) | 8.91
33 | CCn1nc(C(=O)OC2CCOC2=O)c2ccccc2c1=O (stereo not drawn) | 9.55
34 | CCCC(C)C(=O)Nc1ccncc1 (stereo not drawn) | 10.5
35 | CC(=O)Nc1ccc2c(CSc3nncs3)cc(=O)oc2c1 | -6.6
36 | CCCSC1=C(C#N)C(c2ccc(Cl)cc2Cl)CC(=O)N1 (stereo not drawn) | 11.8
37 | CCSCc1nc(N)nc(NCCc2ccccc2)n1 | 13.2
38 | O=Cc1ccc(N2CCCC2)c([N+](=O)[O-])c1 | 13.7

Row | SMILES | hERG current change (%, negative = inhibition) at 1uM [%]
39 | CN(C)CC(=O)c1c[nH]c2ccccc12 | 9.19
40 | COCCNC(=O)COc1ccc(Nc2ccccc2)cc1 | 1.8
41 | COc1ccccc1N1CCN(CC(O)c2ccc3cc[nH]c3c2)CC1 (stereo not drawn) | -50
42 | CCc1noc(C)c1C(=O)OCC(=O)N(CCOC)c1c(N)n(Cc2ccccc2)c(=O)[nH]c1=O | 19.4
43 | CC(NS(=O)(=O)OCC(Cl)(Cl)Cl)c1ccc(Br)cc1 (stereo not drawn) | 2.61
44 | Cc1ccc(NC(=O)CCN2C(=O)C3C4CCC(C4)C3C2=O)cc1Cl (stereo not drawn) | 7
45 | COc1cccc(NC2SC(=O)N(c3ccccc3)C2=O)c1 (stereo not drawn) | 11.3
46 | Cc1ccc(C)c(N2CCN(C(=O)CN(C)S(=O)(=O)c3ccc4c(c3)CCC(=O)N4)CC2)c1 | 6.28
47 | COC(=O)N/N=C/c1cn(CCOc2ccccc2OC)c2ccccc12 | 5.38
48 | COCCn1c(C)cc(/C=C2/SC(=O)N(C(C)C(=O)OC)C2=O)c1C (stereo not drawn) | -1.19
49 | CCc1nc2cc(C)nn2c2nc3ccccc3n12 | -15.4
50 | Cc1cc(S(=O)(=O)NCC(c2ccccc2)c2ccccc2)ccc1-n1cnnn1 | 4.03
51 | O=[N+]([O-])c1cc(-c2nc(-c3ccncc3)no2)ccc1Cl | 13.4
52 | CCCCc1nc(N2CCN(C(=O)c3ccco3)CC2)c(C#N)c2c1CCCC2 | 5.01
53 | COc1ccc(NS(=O)(=O)c2cccc(C(=O)N(C)Cc3cccs3)c2)cc1 | 5.16
54 | CC(=O)NC(Cc1c[nH]c2ccccc12)C(=O)N/N=C/c1ccccc1 (stereo not drawn) | 14.7
55 | O=C(NCc1ccc(Cl)cc1)c1ccc2ccccc2n1 | 14.7
56 | CC1(C)Oc2ccc(C(=O)NNC(=O)Nc3ccccc3)cc2NC1=O | 11.3
57 | COc1ccc(OCc2cc(C(=O)N(C)Cc3nnc(C)o3)no2)c(Cl)c1 | 12.8
